According to paper PMC12136788:
The list shows a part of the results.

T1: UNK ZnF1-3 (human, UniProt Q9C0B0 31-174)
T1 sequence: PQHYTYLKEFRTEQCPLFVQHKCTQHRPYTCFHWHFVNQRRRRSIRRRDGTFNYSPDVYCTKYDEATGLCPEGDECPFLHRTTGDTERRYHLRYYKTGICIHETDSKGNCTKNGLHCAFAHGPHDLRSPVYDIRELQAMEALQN

B1: chr14:102349618:102349619:+_ENSG00000078304_ENST00000445439|hu_hu|motif|central (ssRNA)
RNA: GGGAGUUCUACAGUCCGACGAUCUACAAACUUCUGAUCAAUAUAUUUCUUCGCUAUAUUAGGUUGGAAAUCUGGAGACUCGGAAAAUCUUAAGAAAAAUUCAUAAACAAGCUGUAGAUGAGGCCAGGCUGCUUCUAACGUUGGCAACAGAGGAUUGAGCAUCA
B2: chr17:30356047:30356048:-_ENSMUSG00000062202_ENSMUST00000168787|mus_mus|motif|central (ssRNA)
RNA: GGGAGUUCUACAGUCCGACGAUCUAUUGCUUGCUAGAGACACUGGCAACUCCAGGCUGGAUGCUGCCCCACACACAAUAGCGGCACGCUGGCUACAUCCAUGGAAACCUCCCUACCAAAGGCAGCCACACCACACAGCAAAAUCAACAGAGGAUUGAGCAUCA
B3: chr8:29963340:29963341:+_ENSG00000104660_ENST00000321250|hu_hu|FALSE|FALSE (ssRNA)
RNA: GGGAGUUCUACAGUCCGACGAUCUUUUCACCACUGCUGCCAGCUGAAGUCGUCAUUGCUUCCAAAGACCAAGAAAAAGCCUAGUAUAGUUGCAAAGAUGACUGUGUUUCCUGUGAGAACAAGUGCACAAGCUCCCCACUCAAUCAACAGAGGAUUGAGCAUCA
B4: chr5:31546141:31546142:+_ENSMUSG00000029148_ENSMUST00000031034|mus_mus|FALSE|FALSE (ssRNA)
RNA: GGGAGUUCUACAGUCCGACGAUCUCUGAGCCACUGCUGACUACUGUUUGGGACUCCCCUUCCGACAUGCUGGAAUGAACACUCAGCCUCCCGACUCCGCGCCCGCAGCCUGCGCUUCAGCUCCAGCUCGGGUUCCGGGGCCUCCAACAGAGGAUUGAGCAUCA
B5: chr1:111986530:111986531:-_ENSG00000116455_ENST00000235090|hu_hu|FALSE|FALSE (ssRNA)
RNA: GGGAGUUCUACAGUCCGACGAUCACUGCAGCCAAUCUGUGAUGCUGGCUUGGGACAGCGGGUAUCCCAGAGUAAAAUUCUAUUGUCCUCGCUGCAUGAAAGAAACACAGAGUCCUUGUGAGGAGAGGCAGCAACACAAGUGACCAACAGAGGAUUGAGCAUCA
B6: chr1:58468927:58468928:-_ENSMUSG00000026034_ENSMUST00000148330|mus_mus|mus_mus_mus_hu_False|8_58 (ssRNA)
RNA: GGGAGUUCUACAGUCCGACGAUCAAUUACUGAAAAAGAUGUUCAUUACCUUAGCUAUGUACUUAAUGAACCAAAUUAUCUAAAAAAAAUAAACAUGGCAAUAUAAAAAUGUUAAGAAUUUACAAAGAUUAAAAGCUUAACUUACAACAGAGGAUUGAGCAUCA
B7: chr2:65860617:65860618:+_ENSMUSG00000044647_ENSMUST00000122912|mus_mus|motif|central (ssRNA)
RNA: GGGAGUUCUACAGUCCGACGAUCGAGCUGGCUAGGAGUUCCUGGGAUGUGACUAUCUAUUUGGUAGUAGAGAGUUGAAGAGCGGGCGUAAAAUGAAGCAUUUUUUGUGUGGCUUUCAUGAACUGCGGUGCCAUCAGAGUAACACAACAGAGGAUUGAGCAUCA
B8: chr6:38652254:38652255:-_ENSG00000124767_ENST00000373365|hu_hu|hu_hu_hu_mus_False|48_108 (ssRNA)
RNA: GGGAGUUCUACAGUCCGACGAUCCGAAAACUUCAUAGCAGGGAAGUCAAGCUUCUGCAGGAGGGUCAGUCCAAGAACCCUCGUAUAAAAAUCCAGUGACUUCUUAGGAUCCUUAAUUCUUAGCAUCGUUUGCUGCAGUAGAAACAACAGAGGAUUGAGCAUCA
B9: chr7:86439405:86439406:+_ENSMUSG00000039202_ENSMUST00000037315|mus_hu|FALSE|FALSE (ssRNA)
RNA: GGGAGUUCUACAGUCCGACGAUCUUCCUUGAAGAGUUGUACAGUUGGGCCGGUCAGGUCAGAUCUCUUAUUCAAACAAACCUAAAAGCUGCGUGUGAUUGACUACAGGUGCUCAGCUCGCCCCCAGUCUGGUUCCUGCAGCUCCAACAGAGGAUUGAGCAUCA
B10: chr5:128440902:128440903:+_ENSG00000066583_ENST00000173527|hu_mus|hu_hu_hu_mus_True|68_98 (ssRNA)
RNA: GGGAGUUCUACAGUCCGACGAUCUUGAACGGUGCUGCCAAGACCUUUGGGGUAUUGUUCCGUUAUGAUAACAGGAAUCCCUAAGAUCCGAGCUCCUUGCAACAGUCUCUGUCCCACACUAAUGAUGUCCCCAAAGUAUUUGAUCAACAGAGGAUUGAGCAUCA
B11: chr17:34051329:34051330:+_ENSG00000006125_ENST00000262325|hu_hu|FALSE|FALSE (ssRNA)
RNA: GGGAGUUCUACAGUCCGACGAUCAAUCAAAUGAGAUUAUAAUAUGGAAAGGGGGAAGCAUGAAGGCUUGGCCAAGGAAAAGGAGUUUGGAGGGGAAAAAAAGAAAAAAGCAAACUGAAAAUCCAAAUGACCAGGGAUAAGGCUCAACAGAGGAUUGAGCAUCA
B12: chr22:19452774:19452775:-_ENSG00000070010_ENST00000399523|hu_hu|hu_hu_hu_mus_False|28_68 (ssRNA)
RNA: GGGAGUUCUACAGUCCGACGAUCCUUCUCAUUGUAGUUGAUAGCAAUCACAUCUCCAGUCGUCAGACAGGCAAAGUUUCUCAAUGCAUUUUCUAAUACCGCUUUAGGGUUGGUGAUAUCCAGGAAGUCUGGGCUCUGAGGCUGCAACAGAGGAUUGAGCAUCA
B13: chr2:91460361:91460362:+_ENSMUSG00000040549_ENSMUST00000099716|mus_mus|motif|central (ssRNA)
RNA: GGGAGUUCUACAGUCCGACGAUCUGUGUACAAUGGCCUGCAGCGGCCGCUUCACACUACAGGGCUUCUAGAUCAGUAACGGAAGCUGCAGAGUGCCGAGGGUGGGCAGCUUCAUUUGCGACUGCUCUUUAUUCUCUCCAGUCUCAACAGAGGAUUGAGCAUCA
B14: chr4:120564322:120564323:+_ENSMUSG00000032890_ENSMUST00000071093|mus_mus|motif|central (ssRNA)
RNA: GGGAGUUCUACAGUCCGACGAUCAAGUGUCCAUACGAUGCUCCUUUGGGUUCUUUCCAGCAAGAUACAGAGAUGUGGACGGUAUAGUCCAUGUGAUCACCAGGACUGAUUGUACACAGACAAAUGGACAAAUAUGUGGACACACAACAGAGGAUUGAGCAUCA
B15: chr11:134021440:134021441:+_ENSG00000166086_ENST00000529443|hu_hu|motif|central (ssRNA)
RNA: GGGAGUUCUACAGUCCGACGAUCAUUCAUAUCUUAAAAUACACGAGUAUUCCUUUUCCGUCUAGUCUCAGUUAUAGGCAGCGGCUUCCCAGACUCUACUUUCACUUCUCUCUACUUUUUCAGACCUGGUUCCCAUGGCACUAGCAACAGAGGAUUGAGCAUCA
B16: chr6:30401018:30401019:+_ENSMUSG00000029775_ENSMUST00000068259|mus_mus|FALSE|FALSE (ssRNA)
RNA: GGGAGUUCUACAGUCCGACGAUCAUGAUAUUUUAAUCUGUAGUGUUAGUUGACAUGGUCAAUAUGCUCAGAAUUAAAAAAAAAAGGCAACAAUUUCUCUCUCUUGAUUCUUAACAUUAUUAAGGGACUUUCAGACAUUCCCUCCAACAGAGGAUUGAGCAUCA
B17: chr11:46405157:46405158:+_ENSG00000110492_ENST00000395566|hu_hu|hu_hu_hu_mus_False|28_68 (ssRNA)
RNA: GGGAGUUCUACAGUCCGACGAUCCCCUCCCCACUUUGGGCACUUGGUGUGGGCGUGAGAGGACAGGAUGAUUGAUUAGAGCUGACAGGAAGACAAAAGGCACUGGUGGGUCACAUCUUGGGCCUGUGGGAGAGGAGGGCUCCGCAACAGAGGAUUGAGCAUCA
B18: chr1:118462952:118462953:-_ENSG00000196505_ENST00000369442|hu_mus|FALSE|FALSE (ssRNA)
RNA: GGGAGUUCUACAGUCCGACGAUCCGUACGAGUCGCCCCAGCUUAGCAGGGUAUCCACAUCCACAAACUGGGAAGGUGCACCCAAGGGAUCCAUGGAAUGGGAGCUUCAGCUCGUGAACCAAACUCUUUGGCAAUUCAACAAUCCAACAGAGGAUUGAGCAUCA
B19: 109674737_109693794_237_CDS_ENSMUSG00000031924_ENSMUST00000034400|mouse|control|control (ssRNA)
RNA: GGGAGUUCUACAGUCCGACGAUCAUCAGGGGAGUGGCCGACAUCUUCAAAGCUUUCAGUUGCAUCAGCACCCGCUUGUUCCAGCAGAACCUCUUCCCCGCCAGGAUGCUCGCUGAGGAAGCGGGUGAUAUCGUAGACUCGCCCCAACAGAGGAUUGAGCAUCA
B20: chr18:42480448:42480449:+_ENSMUSG00000024491_ENSMUST00000091920|mus_hu|FALSE|FALSE (ssRNA)
RNA: GGGAGUUCUACAGUCCGACGAUCGAAGUGUUCAUUGAGCUUGGUAAUGUUGUUCAAUUCCUGAGGGAUUUUCUUGACUUCUAAUUUGGUGUUUGUAUACUGAUUCUUUCGUAAGAACCCUGGUUUAUUUUGAUUGUUAUUUCCCAACAGAGGAUUGAGCAUCA
B21: chr1:231410971:231410972:+_ENSG00000116906_ENST00000366647|hu_hu|motif|central (ssRNA)
RNA: GGGAGUUCUACAGUCCGACGAUCCAAAAGGUACUUGCAAAUUAUCUGAUAGCUUUCCACAAAAGGUUUAAAGAGUCCGGCGGAAAAUUCUAACACAGUAUUUCCUUUCUCUGUAACUAGGAUGUCUUUCGUAGUCACUUGUAUCAACAGAGGAUUGAGCAUCA
B22: chr11:102258902:102258903:+_ENSMUSG00000006575_ENSMUST00000006750|mus_hu|FALSE|FALSE (ssRNA)
RNA: GGGAGUUCUACAGUCCGACGAUCAAAAUUGACAAACUCCUCCGAUGAGUCAUCGAUGGGCUCCGCUGUGUACUUCUCCAGCAGCGUUUUCACAGAGAACCUGCACACGGUGAUCAGGUUCUUACGCUCCACAGCCACGUUGCGCAACAGAGGAUUGAGCAUCA

Each binder was assayed against T1, UNK ZnF1-3 (assay: nsRBNS (natural sequence RNA bind-n-seq); RBNS binding buffer (assumed for nsRBNS): 25 mM Tris pH 7.5, 150 mM KCl, 3 mM MgCl2, 0.01% Triton X-100, 500 ug/ml BSA, 20 U/ml SUPERase-In, 4 C; UNK is unkempt and MSI1 is Musashi-1; names of the RNAs are library labels; protein concentration not given here; high values mean tight binding).
In the case of B1, the binding signal is reported as 1.79 enrichment R.
Binder B2 has a binding signal of 1.31 enrichment R.
In the case of B3, the binding signal is reported as 1.3 enrichment R.
Binder B4 has a binding signal of 0.504 enrichment R.
B5 gave a binding signal of 1.97 enrichment R.
Binder B6 has a binding signal of 2.18 enrichment R.
Work on B7 yielded a binding signal of 1.11 enrichment R.
For B8, the binding signal was 0.957 enrichment R.
B9 gave a binding signal of 1.23 enrichment R.
In the case of B10, the binding signal is reported as 0.665 enrichment R.
For B11, the binding signal was 2.51 enrichment R.
With B12 the binding signal was 0.979 enrichment R.
B13 was tested, and the binding signal was 0.76 enrichment R.
For B14, the binding signal was 1.31 enrichment R.
For B15, the binding signal was 0.552 enrichment R.
For B16, the binding signal was 1.07 enrichment R.
Work on B17 yielded a binding signal of 2 enrichment R.
In the case of B18, the binding signal is reported as 1.61 enrichment R.
Work on B19 yielded a binding signal of 0.78 enrichment R.
With B20 the binding signal was 0.32 enrichment R.
With B21 the binding signal was 0.594 enrichment R.
For B22, the binding signal was 0.659 enrichment R.
